72 compounds from PubChem BioAssay AID1240 (Sanford-Burnham Center for Chemical Genomics, 2008) can be followed below.

About 800 (1.6%) of roughly 50,000 compounds showed an effect of 50% or more. The list shows a part of the results.

The assay has as its target Bcl-2-like protein 10 (Homo sapiens) (UniProt Q9HD36). Briefly: Phenotype converters, Bcl-B/TR3 peptide binding displacement, primary biochemical FP (AID 1240).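 Also: 0% = Bcl-B with tracer peptide and DMSO and 100% = tracer peptide lacking Bcl-B.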 The note with it: GST-Bcl-B / FITC-TR3 peptide fluorescence polarization; stronger effect = higher value; compound at 3.75 mg/L. In general terms: Polarisation of emitted light reports the rotation of a fluorescent probe.
UniProt Q9HD36, sequence (Q9HD36 whole entry, looked up): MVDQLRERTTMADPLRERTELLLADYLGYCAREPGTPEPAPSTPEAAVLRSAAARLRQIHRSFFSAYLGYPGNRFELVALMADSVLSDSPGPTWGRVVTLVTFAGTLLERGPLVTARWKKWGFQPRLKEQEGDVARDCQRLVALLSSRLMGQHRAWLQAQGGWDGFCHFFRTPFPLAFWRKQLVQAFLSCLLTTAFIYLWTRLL
On to `CCOc1cc(/C=c2\sc3nc4ccccc4n3c2=O)ccc1OC(C)c1ccccc1` (configuration not stated), for which the displacement came to 37.5%.

Turning to `O=C(NCC1CCCO1)NC1CCCCC1` (configuration not stated), the displacement was -2.5%.

Turning to `CCc1nnc(NC(=O)c2ccc3c(c2)OCCO3)s1`, the displacement was 6.6%.

`CC1=C(C(=O)Nc2cc(Cl)ccc2C)C(c2ccccc2Cl)NC(=O)N1` (configuration not stated): the displacement turned out to be 13.6%.

On to `COc1ccc(N(CC(=O)Nc2ccc(C)cc2)S(C)(=O)=O)cc1Cl`, for which the displacement stood at 5.1%.

Take `COc1ccc(/C=C/C(=O)Nc2ccccc2C(F)(F)F)cc1OC`: the displacement was -4.5%.

Consider `COc1ccc(C2Nc3ccccc3C(=O)N2Cc2ccco2)cc1CSc1nc2ccccc2s1` (configuration not stated), for which the displacement is 11.9%.

As to `COc1ccc(C2C(C#N)=C(N)OC3=C2C(=O)CCC3)cc1` (configuration not stated), the displacement was found to be 3%.

For the compound `COc1cccc(OC)c1C(=O)Nc1cc(C(F)(F)F)ccc1Cl`, the displacement is -4%.

Consider `COc1ccc(C(=O)Nc2ccc(I)cc2Cl)cc1Cl`, for which the displacement is -7%.

Take `CC(Sc1nnc(N)s1)c1ccccc1` (configuration not stated): the displacement stood at 5.2%.

As to `CCOc1cccc(C(=O)Nc2scc(-c3ccc(C)cc3)c2C(=O)OC)c1`, the displacement is -5.1%.

On to `CN(Cc1ccccc1)C(=O)c1ccc2c(c1)OCCO2`, for which the displacement turned out to be 8.7%.

For the compound `O=C(c1c(Cl)cccc1Cl)N1CCN(c2ccccc2)CC1`, the displacement was found to be 5.9%.

Consider `CCOC(=O)c1c(NC(=O)c2ccc(OC)c(OC)c2)sc(C(=O)Nc2ccc(C)cc2C)c1C`, for which the displacement was -0.6%.

Regarding `COc1cccc(CN2CCN(C(=O)c3cc(OC)cc(OC)c3)CC2)c1`, the displacement was found to be 17.3%.

Consider `O=C(CSCC(=O)Nc1ccccc1)NCC(=O)c1ccccc1`, for which the displacement is -7.9%.

`O=C(Nc1cccc(C(F)(F)F)c1)c1ccc(Cl)cc1Cl`: the displacement was found to be 10.8%.

As to `COc1cccc(OCCNC(=O)c2ccc(C)cc2)c1`, the displacement was -15.4%.

With `COc1ccccc1N1COc2ccc3ccccc3c2C1`, the displacement was determined as 11%.

Regarding `CCOC(=O)COc1ccc2oc(C)c(C(=O)OC(C)C)c2c1`, the displacement was determined as 8.9%.

On to `Cc1ccc(-n2nc3cc(C)c(NC(=O)c4cccc(Br)c4)cc3n2)cc1`, for which the displacement was -0.8%.

On to `CCc1c(C)sc(NC(=O)c2ccc([N+](=O)[O-])cc2Cl)c1C(N)=O`, for which the displacement is 8.9%.

Take `COC(=O)C1=C(C)N=c2s/c(=C\c3ccc(-c4ccc(OC)cc4[N+](=O)[O-])o3)c(=O)n2C1c1ccccc1` (configuration not stated): the displacement was found to be 11%.

Take `O=C(NC1CCCCC1)c1ccc([N+](=O)[O-])cc1`: the displacement turned out to be 0.7%.

Consider `CCOc1cc(/C=C2\C(=O)NC(=O)N(c3cc(C)cc(C)c3)C2=O)cc(Cl)c1O`, for which the displacement turned out to be 11.4%.

Turning to `COc1ccc(/C=C/C(=O)NCC2COc3ccccc3O2)cc1OC` (configuration not stated), the displacement is -18.2%.

For the compound `Cc1cc(/C=C2/NC(=O)NC2=O)c(-c2ccccc2)n1-c1ccccc1`, the displacement was -5.1%.

As to `O=C(Nc1ccccc1C(=O)N1CCOCC1)c1ccccc1F`, the displacement turned out to be 5.5%.

On to `CCCCCCCCc1nnc(NC(C)=O)s1`, for which the displacement was -12.2%.

In the case of `CSC1=NC(C)(C)CC12C=CC(=O)C=C2`, the displacement came to 16.9%.

`CC(=O)c1cccc(NC(=O)Cc2cccs2)c1`: the displacement worked out at 15.1%.

Regarding `COc1cc(/C=N/NC(=O)COc2cccc(C)c2)cc([N+](=O)[O-])c1O`, the displacement was 4.4%.

On to `Cc1cc(C)n(C(=O)CNC(=O)c2ccc(F)cc2)n1`, for which the displacement turned out to be 7%.

On to `CCOc1ccc(N2C(=O)NC(=O)/C(=C/c3cccc4ccccc34)C2=O)cc1`, for which the displacement was found to be 1.4%.

As to `Cc1ccccc1NC(=O)c1ccc2ccccc2n1`, the displacement was -3.8%.

For the compound `CC(=O)NC(NC(=S)Nc1ccc(C(C)=O)cc1)C(Cl)(Cl)Cl` (configuration not stated), the displacement was -2%.

For the compound `COc1cc(/C=C2/SC(=S)N(C)C2=O)ccc1OCCOc1cc(C)ccc1C(C)C`, the displacement was 0.8%.

Take `O=C(Nc1ccc(Cc2ccncc2)cc1)c1ccc(-c2ccc(Br)cc2)o1`: the displacement was 109%.

On to `COc1ccccc1N1C(=O)S/C(=C\c2ccccc2Cl)C1=O`, for which the displacement is -1.5%.

`COc1ccc(CCNC(=O)C(=O)Nc2ccccc2C)cc1OC`: the displacement is 12.3%.

With `O=C(COC(=O)c1ccccc1[N+](=O)[O-])c1ccc(F)cc1`, the displacement was determined as 6.8%.

Take `O=C(Nc1ccc(Cl)cc1)C1CC(=O)N(c2ccccc2)C1` (configuration not stated): the displacement turned out to be 8%.

For `CC(C)(C)OC(=O)N1CC(O)CC1C(=O)OCC(=O)c1ccccc1` (configuration not stated), the displacement is -10.6%.

Take `O=C1N=c2ccc(Cl)cc2=C1c1sc(=S)n(Cc2ccco2)c1O`: the displacement was determined as 41.9%.

Regarding `O=C1NN(c2ccc(I)cc2)C(=O)/C1=C\c1ccc(F)cc1`, the displacement is -1.7%.

`NC(=O)c1c(NC(=O)COc2ccc(Cl)cc2)sc2c1CCCC2`: the displacement was 3.8%.

Take `Cc1cccc(C)c1NC(=O)COc1ccccc1O`: the displacement worked out at 2.1%.

On to `O=C(O)c1ccc2c(c1)C(=O)N(c1ccc(Cl)c([N+](=O)[O-])c1)C2=O`, for which the displacement worked out at 9.8%.

In the case of `COCCNC(=O)c1ccc(OC)c(OC)c1`, the displacement worked out at 8.6%.

For `c1ccc(CN2CCN(Cc3c[nH]c4ccccc34)CC2)cc1`, the displacement was -8.5%.

In the case of `CC(=O)NNc1nc(-c2ccccc2)c2cc(Br)ccc2n1`, the displacement is -11.7%.

Take `COc1ccccc1NC(=O)c1c(NC(=O)c2cccc(C)c2)sc2c1CCCC2`: the displacement was -13.9%.

As for `C=C(C)c1cccc(C(C)(C)NC(=O)Nc2ccc(C(=O)N3CCOCC3)cc2)c1`, the displacement was found to be 2.1%.

With `CCOC(=O)c1ccc2nc(C)c(C/C=C(/C)Cl)c(Cl)c2c1`, the displacement was found to be 2.2%.

For the compound `COc1ccc(COCC(O)CN2CC(C)OC(C)C2)cc1OC` (configuration not stated), the displacement was 4%.

For `Cc1ccc(C(C)C)c(OCCNC(=O)CCc2ccccc2)c1`, the displacement came to 9.9%.

For `Cc1ccc(C(=O)Nc2sc3c(c2C(=O)N2CCC(C)CC2)CCCC3)cc1`, the displacement is -8.7%.

On to `COc1cc(CN2CCN(C3CC4CCC3C4)CC2)cc(OC)c1OC` (configuration not stated), for which the displacement is -13.9%.

Take `O=C(COc1ccc(Cl)cc1Cl)Nc1cccc(NC(=O)c2ccco2)c1`: the displacement is -1%.

Turning to `CC1(C)CCCC2=C1CC1C(=O)NC(=O)C1C2` (configuration not stated), the displacement was -12.7%.

Turning to `O=C(c1ccc(C#Cc2ccccc2)cc1)N1CCN(C/C=C/c2ccccc2)CC1`, the displacement amounted to 3.8%.

As to `COC(C)(C)CNS(=O)(=O)c1ccc(C)cc1`, the displacement was 13.2%.

As to `CCC(CO)N1CC2([N+](=O)[O-])C=CCC([N+](=O)[O-])(C1)C2` (configuration not stated), the displacement is -6.5%.

For the compound `COc1ccc(/C=C2/C(=O)N(c3cccc(Br)c3)N=C2C)c(OC)c1`, the displacement amounted to 7.1%.

In the case of `CCc1cccc(CC)c1NC(=O)c1cc(Cl)ccc1[N+](=O)[O-]`, the displacement is -1.3%.

With `COc1ccc(NC(=O)/C(C#N)=C/c2cccc(O)c2)cc1`, the displacement was -6.7%.

As for `O=C(Nc1ccc(S(=O)(=O)N2CCCC2)cc1)c1ccc([N+](=O)[O-])cc1`, the displacement was 8.8%.

As for `Cc1ccc(C(=O)Nc2ccccc2CO)cc1`, the displacement is -17.7%.

As to `O=C(NC(=S)Nc1ccc2ccccc2c1)c1ccco1`, the displacement was found to be 15.5%.

As for `CC(=O)N1C(=O)/C(=C2\C=C(c3ccccc3)OC2=O)c2ccccc21`, the displacement is 5.1%.

On to `O=C(Nc1ccccc1)C(=Cc1ccccc1F)NC(=O)c1ccccc1`, for which the displacement was 5.2%.
